Experimental data taken from the supplement of paper PMC4466236.
Whole data set: some 33,000 sequences, median “E-score (dimensionless, -0.5 to 0.5)” near -0.058, cut for the highest 2% near 0.35. The list shows a part of the results.

Tested on: MvaT
Assay: PBM 8-mer E-score (mean of HK and ME arrays) (E-score (dimensionless, -0.5 to 0.5)); higher = stronger relative binding preference; most listed sequences are background and not binding sites
Summary of the method: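 Full-length P. aeruginosa MvaT carrying an N-terminal glutathione S-transferase tag was tested by protein binding microarray following a previously described protocol. Two universal double-stranded 60-mer arrays, ME and HK, were used, each with a constant 25-mer primer region and a variable 35-mer region covering all 8-mers. The rank-based E-score is the mean of the two arrays, parsed with a custom script. Its range runs from -0.5 to 0.5 for each 8-mer.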

| Sequence | PBM 8-mer E-score |
| --- | --- |
| ATTGTTGC | 0.225 |
| AGTCCAAA | 0.126 |
| CAGGCTCA | -0.229 |
| GGTGATCA | -0.275 |
| GGTTATGA | -0.0507 |
| AAGCTCCC | -0.32 |
| CGTACACC | -0.0808 |
| GCCCCGAC | -0.173 |
| ACGGAGTA | 0.0493 |
| AGACATTG | -0.0117 |
| TACTGAAA | 0.0856 |
| GGCTAAGA | -0.00396 |
| AGCGCCGG | -0.31 |
| AACCAGTT | 0.0597 |
| AGCCTCGG | -0.155 |
| ACGCGCGT | -0.0224 |
| AAAGGGCT | -0.216 |
| AGATGTCA | 0.0185 |
| ACGTACAC | 0.107 |
| ACGCCGTC | -0.242 |
| AAGAACTG | 0.0302 |
| ACTAATGC | 0.085 |
| GGCGTCGA | -0.261 |
| ATACGCAC | -0.017 |
| ATCGTCCA | -0.0468 |

| Sequence | PBM 8-mer E-score |
| --- | --- |
| AGCCTGAT | -0.106 |
| CTCAGACA | -0.261 |
| AATCATTG | 0.116 |
| TGTGGGAA | 0.0206 |
| CCGACCTC | -0.313 |
| AAAATGGG | -0.0336 |
| CACATTAC | 0.16 |
| AGCTCGGC | -0.213 |
| AGCCACTA | -0.0885 |
| CGGTCATC | -0.0971 |
| GCTACATA | 0.04 |
| CCACGACC | -0.119 |
| AGCTACTC | -0.223 |
| GAGAAGGA | -0.221 |
| CACTATAG | 0.196 |
| ACGTGCGG | -0.0576 |
| CTCTTCTA | 0.0459 |
| ATATCCTA | 0.156 |
| GAATCTCA | -0.126 |
| CTCAGATC | -0.108 |
| GAAGGTAA | -0.101 |
| GGATTTAC | -0.037 |
| CCCCACGG | -0.322 |
| CAGTCGGA | -0.178 |
| AGATCTAC | -0.138 |

| Sequence | PBM 8-mer E-score |
| --- | --- |
| ATAGATGC | 0.067 |
| GCGGGCGA | -0.301 |
| AAGTTTTG | 0.238 |
| CGAAACGA | -0.00232 |
| GACCCGTA | -0.277 |
| CTGAGTGC | -0.16 |
| CTACTAAA | 0.168 |
| CTTGGTTA | 0.0108 |
| CCGGGCCA | -0.174 |
| ATAAATAC | 0.362 |
| GTAAAGCA | 0.0554 |
| AAGTAATG | 0.276 |
| AAGCGATA | -0.00776 |
| AATGCTAG | 0.0259 |
| ATGTGGCA | 0.0656 |
| AGTTCGCC | 0.0954 |
| CGGACGGC | -0.197 |
| CAACTCTA | 0.175 |
| CGGAGATC | -0.221 |
| CGCTACAA | -0.000717 |
| GTCAATAA | 0.189 |
| TATGATGA | 0.115 |
| ACCTTATG | -0.0162 |
| ACAAAACA | 0.222 |
| CCGGACGC | -0.242 |

| Sequence | PBM 8-mer E-score |
| --- | --- |
| AGTGGTGA | 0.108 |
| AGCCATAG | -0.0864 |
| AGTTGCAG | 0.0464 |
| GTTAGTAA | 0.127 |
| AAGACTTG | -0.00277 |
| ATGTAGTG | 0.0237 |
| GTTATAAA | 0.345 |
| CTCACAGA | -0.14 |
| ACTTGATA | 0.174 |
| CTGCGCCC | -0.118 |
| CCTTTACC | -0.161 |
| CGATTGCG | -0.0898 |
| AAAGCGCA | -0.0373 |
| CTAAAATA | 0.353 |
| CGACTCCG | -0.255 |
| TGGGCAAA | -0.0461 |
| AAATAATC | 0.301 |
| ACGCGTTC | -0.184 |
| CCACGAAA | -0.117 |
| CCCTCCCG | -0.222 |
| GAGCCATC | -0.139 |
| ACTCGGCC | -0.00469 |
| CATGCCAA | -0.101 |
| ATGAAAGA | 0.188 |
| AACTCCCG | -0.0446 |

| Sequence | PBM 8-mer E-score |
| --- | --- |
| TTACTCAA | 0.152 |
| ATGCATAC | 0.0757 |
| CTTCCCCC | -0.176 |
| CCGAGAAC | -0.116 |
| ACGCTGCA | -0.0582 |
| GCAAATCA | 0.104 |
| ATATCGTC | 0.0997 |
| AACCTCTT | 0.00513 |
| AACGCTAC | -0.125 |
| AGGATCCA | -0.259 |
| AAGCTCAT | -0.0238 |
| CCTCACCC | -0.165 |
| GCTCTCAC | -0.206 |
| GCTACCGA | -0.234 |
| CGCCTGCC | -0.0816 |
| AAGTCCGC | 0.0463 |
| CTCCGCTA | -0.115 |
| AGGTCCGG | -0.246 |
| ACAGAACG | -0.148 |
| CCCCTGTC | -0.221 |
| CCGTTTTC | -0.095 |
| ATAATATG | 0.435 |
| AGGCCTAA | -0.204 |
| AACTCCCA | -0.103 |
| ACACCTTG | -0.0951 |

| Sequence | PBM 8-mer E-score |
| --- | --- |
| CACGAAAA | 0.0841 |
| GATCCCTA | -0.173 |
| GTCGGTGA | -0.0748 |
| ACCTTGTA | 0.0343 |
| AAGCTGCC | -0.31 |
| AATCCTCA | -0.115 |
| CAAAACTA | 0.201 |
| GACGCACC | -0.0485 |
| CGCTATCA | -0.149 |
| GGATCGAA | -0.204 |
| CAACCGTA | -0.054 |
| AAATAGCG | 0.201 |
| CTGTAATA | 0.36 |
| ATAAAAAT | 0.293 |
| CCCGGGGA | -0.299 |
| CTCGAGCC | -0.282 |
| AAGAACGC | 0.00314 |
| ATTGGTTG | 0.0565 |
| AGATCTTC | -0.0782 |
| GATAGAAC | 0.0967 |
| ATTGCTGA | -0.0547 |
| ATCCGGAC | -0.0907 |
| CCGGCCAG | -0.243 |
| GAATGTAC | 0.161 |
| CCCCATTA | 0.0583 |

| Sequence | PBM 8-mer E-score |
| --- | --- |
| ATTTACAC | 0.255 |
| GATTTCCC | -0.00935 |
| CGGCTAAC | -0.181 |
| ATTAGGAA | 0.0514 |
| AACGTTAA | 0.31 |
| AGCGGACT | -0.0758 |
| ATACTAGC | 0.192 |
| GATGACTA | 0.0511 |
| CAATGTAC | 0.163 |
| GGATCAAC | -0.144 |
| ATAAGGTA | 0.207 |
| TCCTTCGA | -0.106 |
| GATCGAAA | -0.082 |
| GAAGATTC | -0.0282 |
| AAGAGTTC | 0.0252 |
| GAAAGTTC | 0.219 |
| ACAACGCT | -0.0466 |
| AGTAGGTA | 0.0489 |
| CTTTCGCC | -0.0952 |
| GAACACTC | -0.215 |
| CCGCCTAA | -0.0954 |
| GCTGCCGA | -0.235 |
